# The list shows a part of the results.
# B1: PNGase F (Flavobacterium meningosepticum) (protein)
# chain: GIPAPADNTVNIKTFDKVKNAFGDGLSQSAEGTFTFPADVTAVKTIKMFIKNECPNKTCDEWDRYANVYVKNKTTGEWYEIGRFITPYWVGTEKLPRGLEIDVTDFKSLLSGNTELKIYTETWLAKGREYSVDFDIVYGTPDYKYSAVVPVVQYNKSSIDGVPYGKAHTLALKKNIQLPTNTEKAYLRTTISGWGHAKPYDAGSRGCAEWCFRTHTIAINNSNTFQHQLGALGCSANPINNQSPGNWTPDRAGWCPGMAVPTRIDVLNNSLIGSTFSYEYKFQNWTNNGTNGDAFYAISSFVIAKSNTPISAPVVTNLDPHHHHHH
# Assays:
# Test in all cases: glycan array binding signal (z-score within array); higher = stronger binding
# Details in all cases: glycan notation: IUPAC condensed, linker removed
# [1] = target: Gal(b1-4)GlcNAc(b1-3)Gal(b1-4)GlcNAc(b1-3)Gal(b1-4)GlcNAc(b1-2)Man(a1-3)[Gal(b1-4)GlcNAc(b1-3)Gal(b1-4)GlcNAc(b1-3)Gal(b1-4)GlcNAc(b1-2)Man(a1-6)]Man(b1-4)GlcNAc(b1-4)GlcNAc
# Summary of the method: (§1)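 Arrays were curated from the Consortium for Functional Glycomics database, 3228 in total, and kept only where the protein sequence was available. Binding is expressed as a within-array Z-score. This score was averaged across arrays of the same protein sequence at different concentrations or buffers and across linkers, and negative values can be read as non-binding.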
# [2] = target: Gal(b1-4)GlcNAc(b1-3)Gal(b1-4)GlcNAc(b1-3)Gal(b1-4)GlcNAc(b1-2)Man(a1-3)[Gal(b1-4)GlcNAc(b1-3)Gal(b1-4)GlcNAc(b1-3)Gal(b1-4)GlcNAc(b1-2)Man(a1-6)]Man(b1-4)GlcNAc(b1-4)[Fuc(a1-6)]GlcNAc
# Summary of the method: as §1
# [3] = target: Gal(b1-4)GlcNAc(b1-3)Gal(b1-4)GlcNAc(b1-3)Gal(b1-4)GlcNAc(b1-2)[Gal(b1-4)GlcNAc(b1-3)Gal(b1-4)GlcNAc(b1-3)Gal(b1-4)GlcNAc(b1-6)]Man(a1-6)[Gal(b1-4)GlcNAc(b1-3)Gal(b1-4)GlcNAc(b1-3)Gal(b1-4)GlcNAc(b1-2)Man(a1-3)]Man(b1-4)GlcNAc(b1-4)[Fuc(a1-6)]GlcNAc
# Summary of the method: as §1
# [4] = target: Gal(b1-4)GlcNAc(b1-3)Gal(b1-4)GlcNAc(b1-3)Gal(b1-4)GlcNAc(b1-3)Gal(b1-4)GlcNAc(b1-2)Man(a1-3)[Gal(b1-4)GlcNAc(b1-3)Gal(b1-4)GlcNAc(b1-3)Gal(b1-4)GlcNAc(b1-3)Gal(b1-4)GlcNAc(b1-2)Man(a1-6)]Man(b1-4)GlcNAc(b1-4)GlcNAc
# Summary of the method: as §1
# [5] = target: Gal(b1-4)GlcNAc(b1-3)Gal(b1-4)GlcNAc(b1-3)Gal(b1-4)GlcNAc(b1-3)Gal(b1-4)GlcNAc(b1-2)Man(a1-3)[Gal(b1-4)GlcNAc(b1-3)Gal(b1-4)GlcNAc(b1-3)Gal(b1-4)GlcNAc(b1-3)Gal(b1-4)GlcNAc(b1-2)Man(a1-6)]Man(b1-4)GlcNAc(b1-4)[Fuc(a1-6)]GlcNAc
# Summary of the method: as §1
# [6] = target: Gal(b1-4)GlcNAc(b1-3)Gal(b1-4)GlcNAc(b1-3)Gal(b1-4)GlcNAc(b1-3)Gal(b1-4)GlcNAc(b1-2)[Gal(b1-4)GlcNAc(b1-3)Gal(b1-4)GlcNAc(b1-3)Gal(b1-4)GlcNAc(b1-3)Gal(b1-4)GlcNAc(b1-6)]Man(a1-6)[Gal(b1-4)GlcNAc(b1-3)Gal(b1-4)GlcNAc(b1-3)Gal(b1-4)GlcNAc(b1-3)Gal(b1-4)GlcNAc(b1-2)Man(a1-3)]Man(b1-4)GlcNAc(b1-4)[Fuc(a1-6)]GlcNAc
# Summary of the method: as §1
# [7] = target: Gal(b1-4)GlcNAc(b1-3)Gal(b1-4)GlcNAc(b1-3)Gal(b1-4)GlcNAc(b1-3)Gal(b1-4)GlcNAc(b1-3)Gal(b1-4)GlcNAc(b1-2)Man(a1-3)[Gal(b1-4)GlcNAc(b1-3)Gal(b1-4)GlcNAc(b1-3)Gal(b1-4)GlcNAc(b1-3)Gal(b1-4)GlcNAc(b1-3)Gal(b1-4)GlcNAc(b1-2)Man(a1-6)]Man(b1-4)GlcNAc(b1-4)GlcNAc
# Summary of the method: as §1
# [8] = target: Gal(b1-4)GlcNAc(b1-3)Gal(b1-4)GlcNAc(b1-3)Gal(b1-4)GlcNAc(b1-3)Gal(b1-4)GlcNAc(b1-3)Gal(b1-4)GlcNAc(b1-2)Man(a1-3)[Gal(b1-4)GlcNAc(b1-3)Gal(b1-4)GlcNAc(b1-3)Gal(b1-4)GlcNAc(b1-3)Gal(b1-4)GlcNAc(b1-3)Gal(b1-4)GlcNAc(b1-2)Man(a1-6)]Man(b1-4)GlcNAc(b1-4)[Fuc(a1-6)]GlcNAc
# Summary of the method: as §1
# [9] = target: Gal(b1-4)GlcNAc(b1-3)Gal(b1-4)GlcNAc(b1-3)Gal(b1-4)GlcNAc(b1-3)Gal(b1-4)GlcNAc(b1-3)Gal(b1-4)GlcNAc(b1-2)[Gal(b1-4)GlcNAc(b1-3)Gal(b1-4)GlcNAc(b1-3)Gal(b1-4)GlcNAc(b1-3)Gal(b1-4)GlcNAc(b1-3)Gal(b1-4)GlcNAc(b1-6)]Man(a1-6)[Gal(b1-4)GlcNAc(b1-3)Gal(b1-4)GlcNAc(b1-3)Gal(b1-4)GlcNAc(b1-3)Gal(b1-4)GlcNAc(b1-3)Gal(b1-4)GlcNAc(b1-2)Man(a1-3)]Man(b1-4)GlcNAc(b1-4)[Fuc(a1-6)]GlcNAc
# Summary of the method: as §1
# [10] = target: Gal(b1-4)GlcNAc(b1-3)Gal(b1-4)GlcNAc(b1-3)Gal(b1-4)GlcNAc(b1-3)Gal(b1-4)GlcNAc(b1-3)Gal(b1-4)GlcNAc(b1-3)Gal(b1-4)GlcNAc(b1-2)Man(a1-3)[Gal(b1-4)GlcNAc(b1-3)Gal(b1-4)GlcNAc(b1-3)Gal(b1-4)GlcNAc(b1-3)Gal(b1-4)GlcNAc(b1-3)Gal(b1-4)GlcNAc(b1-3)Gal(b1-4)GlcNAc(b1-2)Man(a1-6)]Man(b1-4)GlcNAc(b1-4)GlcNAc
# Summary of the method: as §1
# [11] = target: Gal(b1-4)GlcNAc(b1-3)Gal(b1-4)GlcNAc(b1-3)GalNAc
# Summary of the method: as §1
# [12] = target: Gal(b1-4)GlcNAc(b1-3)Gal(b1-4)GlcNAc(b1-3)[Gal(b1-4)GlcNAc(b1-3)Gal(b1-4)GlcNAc(b1-6)]GalNAc
# Summary of the method: as §1
# [13] = target: Gal(b1-4)GlcNAc(b1-3)Gal(b1-4)GlcNAc(b1-6)[Gal(b1-3)]GalNAc
# Summary of the method: as §1
# [14] = target: Gal(b1-4)GlcNAc(b1-3)Gal(b1-4)[Fuc(a1-3)]GlcNAc(b1-3)Gal(b1-4)[Fuc(a1-3)]GlcNAc
# Summary of the method: as §1
# [15] = target: Gal(b1-4)GlcNAc(b1-3)GalNAc
# Summary of the method: as §1
# [16] = target: Gal(b1-4)GlcNAc(b1-3)[Fuc(a1-3)GlcNAc(b1-6)]Gal(b1-4)Glc
# Summary of the method: as §1
# [17] = target: Gal(b1-4)GlcNAc(b1-3)[Gal(b1-4)GlcNAc(b1-6)]Gal(b1-4)GlcNAc
# Summary of the method: as §1
# [18] = target: Gal(b1-4)GlcNAc(b1-3)[GlcNAc(b1-6)]Gal(b1-4)GlcNAc
# Summary of the method: as §1
# [19] = target: Gal(b1-4)GlcNAc(b1-6)Gal(b1-4)GlcNAc
# Summary of the method: as §1
binder,measurement,setting,value
B1,glycan array binding signal (z-score),[1],0.002
same,glycan array binding signal (z-score),[2],0.156
same,glycan array binding signal (z-score),[3],-0.178
same,glycan array binding signal (z-score),[4],-0.24
same,glycan array binding signal (z-score),[5],-0.287
same,glycan array binding signal (z-score),[6],-0.301
same,glycan array binding signal (z-score),[7],-0.215
same,glycan array binding signal (z-score),[8],0.136
same,glycan array binding signal (z-score),[9],-0.305
same,glycan array binding signal (z-score),[10],-0.299
same,glycan array binding signal (z-score),[11],-0.212
same,glycan array binding signal (z-score),[12],-0.122
same,glycan array binding signal (z-score),[13],-0.167
same,glycan array binding signal (z-score),[14],-0.23
same,glycan array binding signal (z-score),[15],-0.281
same,glycan array binding signal (z-score),[16],-0.214
same,glycan array binding signal (z-score),[17],-0.219
same,glycan array binding signal (z-score),[18],1.78
same,glycan array binding signal (z-score),[19],-0.044
